Measured values as given in the RNAGym collection of RNA variant scans (doi:10.7554/elife.90254).
The source gives no read counts; variants with many changes may rest on few reads.

B1: LINE1-full (parent)
chain: UACGUAGGUGGUUUUCCCCUGAUAGUGCUAAGGGGGCCUGGAAGUUUGGACUGGGCAGAGCUCAACACAGCGUGGCAAAGUGGCUGUGGCUAGACUGCCUCUCUGGAUUCCUCGUCACUCAGCAGGGCAUCUCUGAGAGAAAUGCC

Variants of: B1
Experiment: self-cleavage, relative activity (ratio to wild type); higher = more cleavage; in vitro, sequencing; the parent is a self-cleaving ribozyme

Row | Variant | self-cleavage
1 | UACGUAGGUGGUUUUCCCCUGAUAGUGCUAAGGGGGCCUGGAAGUUUGGACUGGGCAGAGCUCAACACAGCGUUGCAAAGUGGCUGUGGCUAGACUGCCUCUCUGGAUUCCUCGUCACUCAGCAGGGCUUCUCUGAGGGAAAUGCC | 1.1
2 | UACGUAGGUGGUCUUCCCCUGAUAGUGCUAAGGGGGCCUGGAAGUUUGGACUGGGCAGAGCUCAACGCAGCGUGGCAAAGUGGCUGUGGCUAGACUGCCUCUCUGGAUUCCUCGUCACUCAGCAGGGCAUCUCUGAGAGAUAUGCC | 1.15
3 | UACGUAGGUGGUUUUCCCCUGACAGUGCUAAGGGGGCCUGGAAGUUUGGACUGGGCAGAGCUCGACACAGCGUGGCAAAGUGGCUGUGGCUAGACUGCCUCUCUGGAUUCCUCGUCACUCAGCAGGGCAUCUCUGAGAGAGAUGCC | 0.57
4 | UACGUAGGUGGUUUUCCCUUGAUAGUGCUAAAGGGGCCUGGAAGUUUGGACUGGGCAGAGCUCAACGCAGCGUGGCAAAGUGGCUGUGGCUAGACUGCCUCUCUGGAUUCCUCGUCACUCAGCAGGGCAUCCCUGGGAGAAAUGCC | 0.34
5 | UACGUAGGUGGUUCUCCCCAGAUAGUGCUAAGGGGGCCUGGAAGUUGGGACUGGGCAGAGCUCAACACAGCGUGGCAAAGUGGCUGUGGCUAGACUGCCUCUCUGGAUUCCUCGUCACUCAGCAGGGCAUCUCUGAGAGAAAUGCC | 1
6 | UGCGUAGGUGGUUUUCCCCUGAUAGUGCUUAGGGGGCCUGGAAGUUUGGACUGGGCAGAGCCCAACACAGCGUGGCAAAGUGGCUGUGGCUAGACUGCCUCCCUGGAUUCCUCGUCACUCAGCAGGGCAUCUCUGAGAGAAAUGCC | 0
7 | UACGUAGGUGGUUUUCCCCCGAUAGUGCUAAGGGGGCCUGGAAGUUUGGACUGGGCCGAGCUCAACACAGCGUGGCAAAGUGGCUGCGGCUAGACUGCCUCUCUGGAUUCCUCGUCACUCAGCAGGGCAUCUCUGAGAGAAAUGCC | 0
8 | UACGUAGGUGGUUUUCCCCUGAUAGAGCUAAGGGGGCCUGGAAGUUUGGACUGGGCAGAGCUCAACACAGCGUGGCAAAGUGGCUGUGGCUAGACUGCCUCCCUGGAUUCCUCGUCACACAGCAGGGCAUCUCUGAGAGAAAUGCC | 1.37
9 | UACGUAGGUGGUUUUCCCCUGACAGUGCUAAGGGGGCCUGGAAGUUUGGACUGGGCAGAGGUCAACACAGCGUGGCAAAGUGGCUGUGGCUAGACUGCCUCUCUGGAUUCCUCGUCACUCAGCAGGGCAUCUCUGAGAGAAACGCC | 0.18
10 | UACGUAGGUGGUUUUCCCUUGAUAGUGCUAAGGGGGCCUGGAAGUUUGGACUGGGCAGAGCUCAACACAGCGUAGCAAAGUGGCUGUGGCUAGACUGCCUCUCUGGAUUCCUCGUCACUCAGCAGGGCUUCUCUGAGAGAAAUGCC | 0.93
11 | UACGUAGGCGGUUUUCCCCUGAUAGUGCUAAGGGGGCCUGGAAGUUUGGACUGGGCAGAGCUCAACACAGCGUGGUAAAGUGGCUGUGGCUAGACUGCCUCUCUGGAUUCCUCGUCACUCUGCAGGGCAUCUCUGAGAGAAAUGCC | 2.6
12 | UGCGUAGGUGGUCUUCCCCUGAUAGUGCUAAGGGGGCCUGGAAGUUUGGACUGGGCAGAGCUCAACACAGCGUGGCAAAGUGGCUGUGGCUAGACUGCCCCUCUGGAUUCCUCGUCACUCAGCAGGGCAUCUCUGAGAGAAAUGCC | 1.49
13 | UACGUAGGUGGUUUUCCCCUGAUAGUGCUAAGGGGGCCUGGAAGUUUGGACUGGGCAGAGCUCAACACAGCGUGGCAAAGUGGCUGUGGCUUGACCGCCUCUCUGGAUACCUCGUCACUCAGCAGGGCAUCUCUGAGAGGAAUGCC | 0
14 | UACGUAGGUGGUCUUCCCCUGAUAGUGCUAAGGGGGCCUGGAAGUUUGGACUGGGCAGAGCUCAACACAGCGUGGCUAAGUGGCUGUGGCUAGACUGCCUCUCUGGAUUCCUCGUCACUCAGCAGGGCAUCUCCGAGAGAAAAGCC | 0.51
15 | UACGUAGGUGGUUUUCCCCUUAUAGUGCUAAGGGGGCCUGGGAGUUUGGACUGGGCAGAGCUCAACACAGCGUGGCAAAGUGGCUGUGGCUAGACUGCCUCUCUGGAUUCCUCGUCACUCAGCAGGGCAUCUCUGAGAGGAAUGCC | 2.27
16 | UACGUAGGCGGUUUUCCCCUGAUAGUGCUAAGGGGGCCUGGAAGUUUGGACUGGGCGGAGCCCGACACAGCGUGGCAAGGUGGCUGAGGCUAGACUGCCUCUCUGGAUUCCUCGUCACUCAGCAGGGCAUCUCUGAGAGAAAUGCC | 0
17 | UACGUAGGUGGCUUUCCCCUGAUAGUGCUAAGGGGGCCUGGAAGUUUGGACUGGGCAGAGCUCAACACUGCGUGGCAAAUUGGCUGUGGCUAGACUGCCUCUCCGGAUUCCUCGUCACUCAGCAGGGCUUCUCUGAGAGAAAUGCC | 0.23
18 | UACGUAGUUGGUUUUCCCCUGAUAGUGCUAAGGGGGCCUGGAAGUUUGGACUGGGCAGAGCACAACACAGCGUGGCAAAGUGGCUGUGGCUAGACUGCCUCUCUGGACUCCUCGUCACUCAGCAGGGCAUCUCUGAGAGAAAUGCC | 0.03
19 | UACGUAGGUGGUUUUCCCCUGAUAGUGCUAAGGGAGCCUGGAAGUUUGGACUGGGCAGAGCUCAACACAGCGUGGCAAAGUGGCCGUGGCUAGACUGCCUCUCUGGAUUCCUCGUCGCUCAGCAGGGCAUCUCUGAGAGAAAUGCC | 0.03
